Laboratory results reported in the supplement of paper PMC11417369.
The other results are listed elsewhere or left out.

The sequences below were run on PfHDP1 homeodomain (GST-tagged) (assay: gcPBM binding intensity (ln(normalized median fluorescence intensity)); higher = stronger DNA binding).
Method in brief: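 GST-tagged P. falciparum DNA-binding domains, expressed in E. coli (about 25 μg on average), were applied for 1 h to an Agilent 4 × 180k array of primer-extended double-stranded 36-bp intergenic genomic probes plus negative controls. The binding buffer was 1× PBS with 1% milk, 0.2 mg/ml BSA, 0.5% salmon testes DNA and 0.03% Triton X-100. Bound protein was detected with Alexa488 anti-GST antibody and scanned at 488 nm. Binding intensity is the highest Masliner-normalised natural-log median intensity across replicate spots of either probe orientation.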

Sequence | gcPBM binding intensity (ln)
TTATAATATTGTGGTATACACACCTTACAAAAAGGT [CACACA_site2878] | 6.58
GGGAGAAATTTATACATACACACATATATATATTAT [CACACA_site4039] | 6.76
AAAAAAATAATGTACACACACATATCTGTTTATATA [CACACA_site4270] | 6.46
ATATTTATATATATATGTACATATGTGTGTTTTTAT [XGTACX_site3956] | 6.66
TCATAAACATTATGCACACAAAAATAAAAAAAAATA [CACACA_site1115] | 10.2
ATATATAACTTTTCTTAACACACAAAAAACAAAAAT [CACACA_site8748] | 6.93
AGGGAATAATATTAATGTACATATATGAACTTGTTT [XGTACX_site6089] | 6.52
TATAAAAAGGAAAAATAAAAATAAAAATAAAAATTA [CACACA_negctrl_site1822] | 6.07
TCTTTTAAAAATTAAGTGCATGTCCTTATAACAAAA | 7.58
AATATTTAAAACAAATCACACATGTATCCATAAATG [CACACA_site5308] | 6.33
ATATCCCATATGTAATGTACTTACACTTTCTTAATT [XGTACX_site7020] | 6.73
TAAATATTTTATTGTACACACTTTTTATGAATGATG [CACACA_site5694] | 6.81
ATAAAATATATATGCACACACATATATATTTCATAC [CACACA_site3547] | 10.2
ACATAAAATAAATATACACACATATGTATATATTAT [CACACA_site3041] | 6.59
AAAAGAATTTAGAAGGCATGCACTTAAACATGGATA [TGCATGCA_site699] | 7.34
ATATATATATATATGTGTACTTATAAATATATCTGT [XGTACX_site4337] | 9.14
TATTTTTACAATGGTAGTACCATTTTGAATCTTTGT [XGTACX_site6092] | 6.14
CACCCGCACGTATTTGCACACATTGCCACGTAATTA [CACACA_site5786] | 10.7
TGCTTATCCATTTCTACACACAAAAAAAAAAAAAAA [CACACA_site37] | 6.36
TATATATATTTATGTTGTACAAAATATTATTACGTA [XGTACX_site5384] | 6.6
AAATGGGTTTATTTAACACACAAAAGAAAAAATATA [CACACA_site1938] | 6.57
TTATATTATAACAAACGTACGAATTTTATACAAATA [XGTACX_site7258] | 6.22
ATGTGATGTTATATATGTACTTATTTTTTAATAAGG [XGTACX_site1786] | 6.72

Sequence | gcPBM binding intensity (ln)
AAAAATATTATGATGTTTATTAGAAAGGAAAAAACT [CACACA_negctrl_site1417] | 6.43
TTTTTATATTATTTAATGAGAAATAATTATAAACAA [CACACA_negctrl_site553] | 6.27
TCGGTATCTGTTCAAAGTACACATTTGTATACAAAA [XGTACX_site1890] | 6.63
ACACTATCTTAGATTTGTACATATTTATATATGTAT [XGTACX_site8739] | 6.16
TATATAACATATGGGACACACATGCAACTGTTATAT [CACACA_site3792] | 6.89
AACATATACACGAACACACACACATATATATATATA [CACACA_site502] | 9.15
TAAAGAAAAAAATGTTGTACTTTATGAAACATATTT [XGTACX_site412] | 6.32
AAAACAAATGAGTACACACACATAAAAATTGAAAAT [CACACA_site199] | 6.55
GTATATATATATATATGTACATATTTAGAGTTCTGT [XGTACX_site5357] | 6.63
ATATTTACCATTGTATGTACATATATAAAATATATC [XGTACX_site3237] | 6.62
ATATATATATATATATGTACATATATACATATATGT [XGTACX_site1521] | 9.32
AGTAGTCTGGAGAAGAGTACATAGTTTCTGGTAGCT [XGTACX_site2023] | 6.01
TTTTTTTTTTTTTGATGTACAATAATTAAAGAGTAA [XGTACX_site8403] | 6.2
CGTAGCCCCACTAACACACACAAATATACTCAATCA [CACACA_site5587] | 6.76
AGTTTTTATTAAAACAAAATTTAATTATAACGTTGA [XGTACX_negctrl_site298] | 5.84
TTATATGTATGAACAAGTACATGCTATAATTATAAA [XGTACX_site1399] | 6.38
TATATATATATATACACACATACATATATATATTTG [CACACA_site857] | 9.28
TGAAATGGAAACAACTGTACAAAATAAATATGATAT [XGTACX_site1311] | 6.86
AATATTAACAATCGCACACATATTATTTTTCCAAAA [CACACA_site4982] | 7.13
ATATAAATATAGCATACACACAAAAAAATAAAATAA [CACACA_site2333] | 6.86
CAACATTTGAAACACACACACATACAAACAAACAAA [CACACA_site3306] | 6.91
TTTTTTTTTTTTGTCACACATATTTGTATTAATCAT [CACACA_site5235] | 6.56
AAAAAACTTTTAAGCACACACATAGATAATATAGAT [CACACA_site6835] | 6.93

Sequence | gcPBM binding intensity (ln)
TTTTTATTAAAATGTATTTTAGGAAAAAACAAAAAA [XGTACX_negctrl_site437] | 6.04
TTCCCTTTTGTAAAATGTACATATATATTTAAACAA [XGTACX_site3263] | 6.8
TAAGTTCCCTTTGAATGTACATATAATGAAAAGAAA [XGTACX_site826] | 6.66
GAGATAAAATAAAACACACACATATATTTATATAAC [CACACA_site7098] | 6.55
TATTAATTTTTAAACATAATTTTTCGTATAATATAT [CACACA_negctrl_site762] | 6.09
TTTACTTTCTTATTTTCACACATTTAAAAAAAAATT [CACACA_site5949] | 6.88
ACATCTAATTTGTATACACACAATAATAAATGGTGA [CACACA_site824] | 6.61
TATATATATTTATAATGTACATATTTTTTTTTATTT [XGTACX_site4761] | 6.9
TTGTATATATGACTTTTTTATATTTCAATTTTGTGC [CACACA_negctrl_site296] | 6.15
AAATGAAATAAATGTAGTACACATATACAATATATA [XGTACX_site6951] | 6.53
TGTATATCATATATTTGTACTCAATTAATATAAACA [XGTACX_site3970] | 6.4
TATTTTTATACAATTTAACACGGGTTATAAAATGTA [CACACA_negctrl_site566] | 6.51
TATGGAAGAAAATATACACACAAAAAAAAAAAATGT [CACACA_site1486] | 6.58
ATACTTTTATTTTTGGTGCATATATCATGTAGACGT | 10
AATTTATTATTTGTATGTACTCATATGATTCACTTA [XGTACX_site2797] | 6.26
AAAATCAAGTAGTATAAAGTAAGTATCATAAAAATA [CACACA_negctrl_site1554] | 6.43
GTACACTAATTATGTGCACACAAATTAAAGGTCTAC [CACACA_site146] | 11
ATAATAAAATGGAGAGTGCATACATGTTTATTTTAT | 7.7
AAAAAAAATTAGGAAACATGCATGTCCCGATAAATA [TGCATGCA_site149] | 6.5
AGATATATTATTAGGTGTACTATAAAATAAATTCAC [XGTACX_site221] | 6.42
CGAACAAACAAATAAACACACAAAAAAAGATATATA [CACACA_site6944] | 6.75
GTGTGTTGTATATACTGTACATACTTTATATATAGT [XGTACX_site1876] | 7.09
TATAACAAGTAATGTTGTACATTGTATTATGTAATA [XGTACX_site6372] | 6.29

Sequence | gcPBM binding intensity (ln)
AAATGTGTTTATTTAACACACAAAAGAAAAAATATA [CACACA_site6993] | 6.7
AATGTAAAATATATGTGTACATATGTTTATATATAT [XGTACX_site2216] | 6.81
CAATCAAAGAAACACACACACACCTAAACATAAAAG [CACACA_site2756] | 6.97
TTAACGTAAAATATAGTGCATAGTATCATATTGATA [GTGCAC_site9527] | 8.1
TGTAGTTTGTCCCATGCATGTTCCATTAAAATATAT [TGCATGCA_site854] | 7.57
AATGTATATATGTAATGTACATATATAATGTATATA [XGTACX_site6510] | 6.6
TTACTCATGAAAGATACACACATTCATTATATATAT [CACACA_site3252] | 6.7
TATATAAACCCGTACACACACATATATGTATATATA [CACACA_site3507] | 7
AAATTTACAATACATTGTACATATTAATAATATTCC [XGTACX_site3646] | 6.26
AATAAAAATTTACTTTGTACACATATTAAATTCAAT [XGTACX_site1957] | 6.24
TACTTCTACAAGAGAAGTACAATATTTTTTATATTA [XGTACX_site8351] | 5.76
AGACATAAGATAATTACACACAATACATCCCTATAT [CACACA_site2227] | 6.82
TAAAATTAGGAAATTGCACACAAAAAAAAACATATT [CACACA_site9349] | 9.48
ATAAAGCCATACAATACACACATTTTACATGGCTGT [CACACA_site5756] | 6.49
TTTGTTATATTTAATACACACATATTATAAACCCAT [CACACA_site3716] | 7.19
AAAAAAAAAAGACACACACACAAATACAAATGGTAA [CACACA_site6906] | 6.64
TATAAATAAATTTATACACACACACCCATATATATA [CACACA_site8183] | 7
TACCAAAATAGACACACACACAAAATATGTAAATAT [CACACA_site6963] | 6.74
TATATTTTAGTTAATGCATGTGTGCATCCATTTAAA [TGCATGCA_site887] | 9.01
ATACATATATATATATGTACACACATTAATAAAAAA [XGTACX_site6874] | 6.83
